# Measurements reported in PubChem BioAssay AID903 (National Center for Advancing Translational Sciences (NCATS), 2007).
# In all, about 55,000 compounds went through this assay and about 340 (0.62%) were called active. Inconclusive results, whose numbers are uncertain, are shown with a selection of clear calls. Calls follow the shape of the dose curve; as a rule, active = well fitted cell-killing curve with a large enough effect; inconclusive = small, poorly fitted or top-dose-only effect; inactive = no such curve, though single readings can be large or run the other way. Where the call is inconclusive, the potency comes from a doubtful curve fit.
# Assay: qHTS Screen for Compounds that Selectively Target Cancer Cells with p53 Mutations: Cytotoxicity of p53 Null Cells at the Permissive Temperature; also: nearly all actives have a fitted effect of over 55% in size
# Details: H1299-neo p53 null cells, ATP luminescence, 24 h, 32C; series mostly up to 46.1 µM; activity change, negative = cytotoxicity: at the top concentration
# Outline: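 ATP-content luminescence in p53-null H1299-neo cells after 24 h compound exposure (up to 46 uM) at 32C permissive temperature; 0% and 100% killing set by DMSO and 100 uM tamoxifen; Hill-equation AC50.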
# Potency is read from the fitted curve at half-maximal effect; tags tell the direction and shape of the fitted curve.
SMILES,Potency,"activity change, negative = cytotoxicity"
CCOc1ccc(S(=O)(=O)Nc2cccc(-c3ccc(N4CCC(C)CC4)nn3)c2)cc1,"inconclusive: 10 µM [cytotoxic, partial curve]",–
O=C(NCc1ccco1)c1ccc(Cn2c(SCc3ccccc3F)nc3cccnc32)cc1,"inconclusive: 15.8 µM [cytotoxic, single point]",–
CC(C)OCc1cc(CN2CCN(c3cccc(C(F)(F)F)c3)CC2)c(O)c2ncccc12,"inconclusive: 12.6 µM [cytotoxic, partial curve]",–
O=C(Cn1c(=O)oc2cc(S(=O)(=O)NCc3ccccc3)ccc21)Nc1ccc(F)c(Cl)c1,–,inactive: -23.9%
Cc1ccc(O)c(NC(=O)c2cc(-c3ccc4c(c3)OCO4)on2)c1,"inconclusive: 2 µM [cytotoxic, full curve]",–
Cc1ccc(CN2CCSc3ccc(C(=O)NCCc4ccccc4)cc32)cc1,"inconclusive: 7.94 µM [cytotoxic, single point]",–
CCOc1ccc(CCNC(=O)CSc2n[nH]c(-c3ccccc3)n2)cc1OCC,–,inactive: 0.401%
COc1ccccc1-c1cc(C(F)(F)F)nc(S(=O)(=O)CCCC(=O)Nc2cc(C)ccc2O)n1,"inconclusive: 35.5 µM [cytotoxic, single point]",–
O=C(Nc1onc2c1CCCC2)c1ccc(Cl)cc1,"inconclusive: 12.6 µM [cytotoxic, partial curve]",–
O=C1c2[nH]nc(-c3ccccc3)c2C(c2ccccc2)N1c1cccc(C(F)(F)F)c1 (stereo unspecified),"inconclusive: 35.5 µM [cytotoxic, single point]",–
CC1CCN(S(=O)(=O)c2ccc3c(c2)N(CC(=O)NCCc2ccc(Cl)cc2)C(=O)CO3)CC1,"inconclusive: 3.55 µM [cytotoxic, single point]",–
CCOC(=O)N1CCN(C(=O)c2ccc3c(c2)N(Cc2cc(C)ccc2C)C(=O)c2ccccc2S3=O)CC1 (stereo unspecified),–,inactive: 3.14%
CCOC(=O)c1cccc(Nc2cc(-c3ccccc3)ncn2)c1,"inconclusive: 12.6 µM [cytotoxic, single point]",–
CSc1nn(Cc2cccc(C)c2)c(N)c1S(=O)(=O)c1ccccc1,"inconclusive: 31.6 µM [cytotoxic, single point]",–
CCc1ccc(NC(=O)Cn2c(=O)n(-c3ccc(OC)cc3)c(=O)c3ccc(C(=O)NCc4ccc(C)cc4)cc32)cc1,"inconclusive: 5.01 µM [cytotoxic, partial curve]",–
CCn1c(C(=O)NCc2cc(Br)ccc2OC)cc2oc3ccccc3c21,"inconclusive: 10 µM [cytotoxic, partial curve]",–
CCCn1c(=O)c2sccc2n2c(CCCC(=O)Nc3ccc(Oc4ccc(Cl)cc4)cc3)nnc12,"inconclusive: 15.8 µM [cytotoxic, single point]",–
Cc1ccc(NC(=O)CSc2nnc3[nH]c(=O)cc(-c4ccccc4)n23)cc1Cl,active: 3.98 µM,–
CCOC(=O)N1CCc2c(sc3c2c(=O)n(Cc2ccccc2)c(=O)n3Cc2ccccc2Cl)C1,"inconclusive: 3.55 µM [cytotoxic, partial curve]",–
COc1ccccc1CN1COc2ccc3c(oc(=O)c4ccccc43)c2C1,–,inactive: -2.84%
O=C(Nc1ccc(Cl)cc1Cl)c1cc(S(=O)(=O)N2CCc3ccccc32)ccc1F,–,inactive: -4.64%
Cc1cccc(N2CCN(C(=O)c3c(C)oc4ncnc(N5CCCCC5)c34)CC2)c1C,–,inactive: 18.4%

SMILES,Potency,"activity change, negative = cytotoxicity"
CCc1ccc(C2CC(=O)Nc3cc4c(cc32)OCO4)cc1 (stereo unspecified),–,inactive: 14%
CC1=C(C)/C(=N/OC(=O)c2cccc([N+](=O)[O-])c2)C=CC1=O,"inconclusive: 25.1 µM [cytotoxic, single point]",–
COc1ccc(OC)c2sc(N3CCN(C(=O)C4CC4)CC3)nc12,"inconclusive: 12.6 µM [cytotoxic, partial curve]",–
Nc1ccc2oc(-c3ccccn3)nc2c1,active: 11.2 µM,–
Cc1cccc(-n2c(C)cc(C(=O)NC3CCCCC3)c2C)c1,"inconclusive: 20 µM [cytotoxic, single point]",–
Cc1cncn1CCc1nc2c3ccccc3nc(SCC(=O)Nc3cccc(Cl)c3)n2n1,"inconclusive: 31.6 µM [cytotoxic, single point]",–
Cc1ccc(/C=C/c2nc3ccccc3[nH]2)cc1,active: 0.398 µM,–
COc1ccc2nc(NC(=O)c3ccc(-c4cccc([N+](=O)[O-])c4)o3)sc2c1,"inconclusive: 22.4 µM [cytotoxic, partial curve, poor fit]",–
CCOC(=O)c1cc(-c2ccccc2)n(CC(=O)NC(C)c2ccccc2)c1C (stereo unspecified),"inconclusive: 10 µM [cytotoxic, partial curve]",–
CN(c1ncnc2onc(-c3cccc(Cl)c3)c12)C1CCCCC1,"inconclusive: 6.31 µM [cytotoxic, single point]",–
Cc1cccc(/C=C(\c2nc3ccccc3[nH]2)S(=O)(=O)c2ccccc2)c1,"inconclusive: 5.62 µM [cytotoxic, single point]",–
COc1ccccc1OCC(=O)NCC(c1ccc(Cl)cc1)N1CCCCC1 (stereo unspecified),–,inactive: 4.11%
CCc1ccc(CNCc2c(C(=O)O)n(Cc3cccc(F)c3)c3cc(OC)ccc23)cc1,–,inactive: 7.09%
Cc1cc(NC(=O)c2ccc3c(c2)OCO3)ccc1NC(=O)c1ccco1,"inconclusive: 12.6 µM [cytotoxic, partial curve, poor fit]",–
CCN(C(=O)Cn1nc(Cc2cccnc2)c2ccccc2c1=O)c1ccccc1F,"inconclusive: 3.16 µM [cytotoxic, single point]",–
COc1ccc(NC(=O)/C(C#N)=C/c2ccc(OCc3cc(=O)n4nc(C)sc4n3)cc2)cc1,"inconclusive: 35.5 µM [cytotoxic, single point]",–
CCOC(=O)CN1C(=O)C(O)(CC(=O)c2cc(OC)ccc2OC)c2ccccc21 (stereo unspecified),–,inactive: -8.03%
O=C(Nc1ccc(N2CCCC2)cc1)c1ccccc1F,"inconclusive: 7.08 µM [cytotoxic, partial curve]",–
Cc1ccc(C(=O)NC(=S)NNC(=O)c2ccccc2[N+](=O)[O-])cc1,"inconclusive: 3.16 µM [cytotoxic, partial curve, poor fit]",–
Cc1cccc(CSc2ccc3nnc(CCNS(=O)(=O)c4ccccc4)n3n2)c1,–,inactive: 2.62%
CCOc1ccc(NC(=O)c2ncn(-c3ccccc3)n2)cc1,–,inactive: -17.2%
Cc1ccc(Cl)cc1NC(=O)c1cc(-c2ccc3c(c2)OCCO3)on1,"inconclusive: 7.94 µM [cytotoxic, partial curve]",–

SMILES,Potency,"activity change, negative = cytotoxicity"
CCN1CCN(CCCNC(=O)c2cnn(-c3ccc(C)cc3)c2C2CCN(C(=O)OC(C)(C)C)CC2)CC1,–,inactive: 2.37%
CCn1c(C(=O)NCc2ccc(OC)cc2)cc2sc(Cl)cc21,"inconclusive: 8.91 µM [cytotoxic, full curve]",–
Cc1cccc(CNC(=O)CN2C(=O)C3CCCCN3c3ccc(C(=O)N4CCCC4)cc32)c1 (stereo unspecified),–,inactive: 0.718%
COC(=O)c1ccc(NC(=O)CCc2c(C)nc3c(-c4ccccc4)c(C)nn3c2C)cc1,"inconclusive: 20 µM [cytotoxic, single point]",–
CCCN(CCC)CCNC(=O)c1cc2c(-c3ccc(Cl)cc3)nn(C)c2s1,"inconclusive: 31.6 µM [cytotoxic, single point]",–
COc1cccc(-c2nnc(Nc3nc4c(F)cccc4s3)o2)c1,"inconclusive: 2 µM [cytotoxic, full curve]",–
COc1ccc(NC(=O)C2CCCN(S(=O)(=O)c3ccc4c(c3)CCCC(=O)N4)C2)cc1OC (stereo unspecified),–,inactive: 3.48%
CS(=O)(=O)N1CCc2cc(S(=O)(=O)NCc3ccccc3Cl)ccc21,"inconclusive: 0.398 µM [cytotoxic, single point]",–
Cc1ccc(-n2ncc3c(N(C)Cc4ccccc4)ncnc32)cc1,active: 12.6 µM,–
Cc1cccc(C)c1OCc1cc(=O)n2c(-c3ccccc3)csc2n1,"inconclusive: 5.62 µM [cytotoxic, single point]",–
CCOc1cccc(NC(=O)C2CC(=O)N(C)C(=Nc3cccc(OC)c3)S2)c1 (stereo unspecified),"inconclusive: 25.1 µM [cytotoxic, single point]",–
O=C(NCCc1ccc(Cl)cc1)C(=O)NCC(c1ccc2c(c1)OCO2)N1CCOCC1 (stereo unspecified),"inconclusive: 1.58 µM [cytotoxic, partial curve]",–
O=C(NCCc1cccs1)c1ccc(Cn2c(SCc3ccccc3)nc3cccnc32)cc1,"inconclusive: 35.5 µM [cytotoxic, single point]",–
CCC(Sc1nc2ccccc2c2nc(CCn3cncc3C)nn12)C(=O)Nc1cccc(OC)c1 (stereo unspecified),"inconclusive: 31.6 µM [cytotoxic, single point]",–
O=C(CC(Nc1ccc(F)cc1)C(=O)OCC(=O)c1cccs1)c1ccccc1 (stereo unspecified),"inconclusive: 0.0316 µM [cytotoxic, full curve]",–
CCN(c1ccccc1)C(CNS(=O)(=O)c1ccccc1)c1ccccc1 (stereo unspecified),–,inactive: 25.1%
Cc1ccc(-c2nnc(Nc3ccc(Br)cc3)c3ccccc23)cc1S(=O)(=O)N1CCN(C)CC1,–,inactive: -4.34%
Clc1ccc(OCCOCCN2CCc3ccccc3C2)c(Cl)c1,"inconclusive: 8.91 µM [cytotoxic, partial curve]",–
CCn1c(=NC(=O)c2ccc3c(c2)OCCO3)sc2c(C)ccc(OC)c21,–,inactive: -18%
CC(C)S(=O)(=O)c1oc(-c2ccc(F)cc2)nc1S(=O)(=O)c1ccccc1,"inconclusive: 31.6 µM [cytotoxic, single point]",–
O=C(Nc1cccc(Cl)c1)c1cc(-c2ccc3c(c2)OCCO3)on1,"inconclusive: 2.82 µM [cytotoxic, full curve]",–
CCN(CC)CCNC(=O)C(=O)NCC(c1cccnc1)N1CCN(c2ccccc2)CC1 (stereo unspecified),"inconclusive: 35.5 µM [cytotoxic, single point]",–
